# Measured values from PubChem BioAssay (NCATS).
# “And” between values parts separate entries of the source, which are not always exact repeats. Identical values can stand only once. Inconclusive means that the source gave no clear call. Such entries were picked first, then a sample of the others. For some of these results: Potencies beside an inconclusive call are fits to weak or partial responses and may not hold up. For some of these results: A note “side channel” means that the fit belongs to a control or component signal, not to the main read-out. A structure can be active in one record and inactive in another. The source made the active and inactive calls. Unless noted, calls follow the shape of the dose curve; as a rule, active = well fitted curve in the direction sought with a large enough effect; inconclusive = small, poorly fitted or top-dose-only effect, or another doubt; inactive = no such curve, though single readings can be large; an effect the other way counts as inactive or inconclusive. Where a SMILES comes first, the peptide text is derived from it. Bridges are numbered along the chain shown (N, C = ends). [ ]: non-standard residue; d: D form. The star is where a group is joined. X1 = CCC(C)C(N)C1=NC(C(=O)*)CS1; dOrn = NCCC[C@@H](N)C(=O)O
# Tests used:
# [1] = biological target: Glutathione peroxidase 1 (Homo sapiens) (UniProt P07203); assay: Primary qHTS Assay for Inhibitors of Recombinant Selenoprotein Glutathione Peroxidase 1 (GPX1) (AID 1845191); details: activity, negative = inhibition: at 48.8 µM (top of the series); also: potency is read from the fitted curve at half-maximal effect; nearly all actives have a fitted effect of over 65% in size
# UniProt P07203, sequence (P07203 whole entry, looked up): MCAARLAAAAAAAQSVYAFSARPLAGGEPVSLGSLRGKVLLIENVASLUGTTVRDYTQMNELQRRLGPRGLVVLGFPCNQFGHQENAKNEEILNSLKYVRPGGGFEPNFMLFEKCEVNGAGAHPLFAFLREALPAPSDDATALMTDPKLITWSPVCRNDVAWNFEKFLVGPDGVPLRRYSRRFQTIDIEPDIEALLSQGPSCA
# Summary of the method: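 GPX1 10 nM, GR 100 nM, GSH 1 mM, NADPH 0.5 mM, CHP 0.5 mM (final). 30-min cpd preincubation, RT. Ex340/Em450 read t=0, t=15 min.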
# [2] = biological target: Peroxisome proliferator-activated receptor gamma (Homo sapiens) (UniProt P37231); assay: qHTS assay for small molecule agonists of peroxisome proliferator-activated receptor gamma signaling (AID 588536; active = well fitted curve in the direction sought with a large enough effect in the signal ratio, with a control signal flat, not every such curve was filed as active; inconclusive = small, poorly fitted or top-dose-only effect, or effect the other way, or a change in a side signal; inactive = no such curve, though single readings can be large or run the other way; the % refers to the signal ratio; also: potency is read from the fitted curve at half-maximal effect;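 as to activation: 0% = DMSO basal wells and 100% = rosiglitazone at 2 µM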); details: HEK293 PPARg-UAS-bla, beta-lactamase ratio, 16 h; activation: at 76.7 µM (top of the series), percent of rosiglitazone response, DMSO as zero
# Summary of the method: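 Using GeneBLAzer HEK293 cells, response was quantified by CCF4 fluorescence and normalized between basal DMSO (0%) and rosiglitazone 2 uM (100%); curves yielded half-maximal stimulation concentration and efficacy.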
# [3] = qHTS assay for small molecule agonists of the antioxidant response element (ARE) signaling pathway (AID 651741; active = well fitted activation curve with a large enough effect in the signal ratio; inconclusive = small, poorly fitted or top-dose-only effect, or effect the other way, or a change in a side signal; the % refers to the signal ratio; also: potency is read from the fitted curve at half-maximal effect; as to activation: % of control where 0% means no effect); details: HepG2 ARE-bla reporter, beta-lactamase FRET ratio, 16 h; activation: at 96 µM (top of the series)
# Summary of the method: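 Reporter: beta-lactamase under ARE, stably in HepG2. Exposure: 16 h, 37 C, compounds delivered in DMSO by pin tool after 5 h cell preincubation. Readout: FRET substrate fluorescence after 2 h at RT.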
# [4] = biological target: Mitogen-activated protein kinase 10 (Mus musculus) (UniProt Q61831); assay: JNK3 AlphaScreen Assay (AID 530; active = well fitted curve in either direction with a large enough effect, not every such curve was filed as active; inconclusive = small, poorly fitted or top-dose-only effect, or another doubt;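 also: kinase came from lysate of stimulated human HepG2 cells; signal reports phosphorylation of biotinylated GST-cJun 1-79 at Ser73 with 10 µM ATP; % is scaled to controls: 0 for no effect and ±100 for the full control effect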); details: JNK3 lysate, c-Jun phosphorylation; activity change, negative = inhibition: at 57.1 µM (top of the series)
# Summary of the method: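 Phosphorylation of biotinylated GST-cJun(1-79) at Ser73 is measured by AlphaScreen proximity luminescence. Enzyme is JNK3 in HepG2 lysates activated with interleukin-1beta and tumor necrosis factor alpha; ATP is 10 uM final.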
# [5] = biological target: 3',5'-cyclic-AMP phosphodiesterase 4B (Homo sapiens) (UniProt Q07343); assay: qHTS Assay for Inhibitors of PDE-IV (AID 607; active = well fitted activation curve with a large enough effect in the main read-out, with a control signal flat, not every such curve was filed as active; inconclusive = small, poorly fitted or top-dose-only effect, or effect the other way, or a change in a side signal; also: potency is read from the fitted curve at half-maximal effect)
# UniProt Q07343, sequence (Q07343 whole entry, looked up): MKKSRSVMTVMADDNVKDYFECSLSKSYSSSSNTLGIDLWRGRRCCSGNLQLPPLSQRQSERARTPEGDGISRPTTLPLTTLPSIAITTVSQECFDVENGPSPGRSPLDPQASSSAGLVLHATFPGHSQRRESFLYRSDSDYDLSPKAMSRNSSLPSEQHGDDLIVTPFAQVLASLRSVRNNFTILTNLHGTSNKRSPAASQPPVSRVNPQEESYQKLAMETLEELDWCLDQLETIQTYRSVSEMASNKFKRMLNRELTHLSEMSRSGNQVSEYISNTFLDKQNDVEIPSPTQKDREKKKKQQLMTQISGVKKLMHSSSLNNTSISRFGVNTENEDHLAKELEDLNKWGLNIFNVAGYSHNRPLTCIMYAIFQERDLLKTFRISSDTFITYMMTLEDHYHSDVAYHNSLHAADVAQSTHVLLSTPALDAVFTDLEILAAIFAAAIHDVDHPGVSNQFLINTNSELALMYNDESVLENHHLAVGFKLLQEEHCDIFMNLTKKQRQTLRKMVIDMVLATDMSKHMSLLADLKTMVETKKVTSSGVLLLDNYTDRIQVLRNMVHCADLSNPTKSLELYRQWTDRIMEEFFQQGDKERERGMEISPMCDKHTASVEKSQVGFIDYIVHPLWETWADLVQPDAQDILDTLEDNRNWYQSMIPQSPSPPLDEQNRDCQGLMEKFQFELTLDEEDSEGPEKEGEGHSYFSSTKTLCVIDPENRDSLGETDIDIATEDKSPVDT
# Summary of the method: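 Live HEK293 cells with a modified cyclic nucleotide-gated (CNG) channel report intracellular cAMP via membrane-potential dye fluorescence (ex 535/em 590 nm). Endogenous PDE-IV was targeted. Compounds were tested at up to 22.9 uM final; RO 20-1724 100 uM served as control.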
# [6] = biological target: N-terminal Xaa-Pro-Lys N-methyltransferase 1 (Homo sapiens) (UniProt Q9BV86); assay: qHTS Assay for Inhibitors of N-terminal methyltransferase 1 (NTMT1): LOPAC validation of the NTMT1 SAHH-coupled ThioGlo3 Assay (AID 1347143);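 also: SAH from peptide methylation measured as thiol fluorescence via SAHH coupling and ThioGlo3; potency is read from the fitted curve at half-maximal effect; nearly all actives have a fitted effect of over 70% in size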
# UniProt Q9BV86, sequence (Q9BV86 whole entry, looked up): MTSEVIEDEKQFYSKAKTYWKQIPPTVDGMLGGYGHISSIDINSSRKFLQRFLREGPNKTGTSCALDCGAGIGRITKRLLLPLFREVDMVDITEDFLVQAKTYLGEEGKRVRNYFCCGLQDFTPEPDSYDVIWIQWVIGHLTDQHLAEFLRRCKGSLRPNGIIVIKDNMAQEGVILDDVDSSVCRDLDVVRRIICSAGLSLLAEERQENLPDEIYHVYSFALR
# Summary of the method: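 In this qHTS pilot against the LOPAC set, 125nM NTMT1 met compounds tested at multiple concentrations, and fluorescence was normalized to background.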
# [7] = qHTS Assay for Identification of Small Molecule Agonists for Hypoxia Response Element Signaling Pathway (AID 914; active = well fitted activation curve with a large enough effect in the signal ratio, with a control signal flat, not every such curve was filed as active; inconclusive = small, poorly fitted or top-dose-only effect, or effect the other way, or a change in a side signal; the % refers to the signal ratio; also: potency is read from the fitted curve at half-maximal effect); details: ME-180 (cervical carcinoma) HRE-bla reporter, beta-lactamase ratio, CoCl2, 17 h; activation: stronger effect = higher value
# Summary of the method: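 AC50 values come from titration-series %Activity, taken as the 460/530nm ratio of CCF4 fluorescence (excitation 405nm). CellSensor HRE-bla ME-180 cells were treated 17 hours at 37 C with compound plus an EC50 level of CoCl2.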
# [8] = S16 Schwann cell PMP22 intronic element beta-lactamase assay (AID 624044; calls by dose curve; also: nearly all actives have a fitted effect of over 15% in size; also: potency is read from the fitted curve at half-maximal effect;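 as to ratio activity, negative = inhibition: 0% = DMSO and -100% = potassium clavulanate positive control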); details: S16 rat Schwann cells, PMP22 element beta-lactamase FRET, 24 h; ratio activity, negative = inhibition: at 38.3 µM (top of the series) unless noted
# Summary of the method: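 Beta-lactamase reporter under a PMP22 intronic regulatory element in stable S16 rat Schwann cells; 24 h compound exposure. 460 nm blue signal normalized between DMSO (0%) and potassium clavulanate, with 535 nm FRET tracking viability; curves classed by r2 and response.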
# [9] = biological target: Voltage-gated inwardly rectifying potassium channel KCNH2 (Homo sapiens) (UniProt Q12809); assay: qHTS Assay for Small Molecule Inhibitors of the Human hERG Channel Activity (AID 588834); details: U2OS BacMam hERG, FluxOR thallium flux fluorescence;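 also: potency is read from the fitted curve at half-maximal effect; lower thallium flux fluorescence means stronger hERG block; nearly all actives have a fitted effect of over 50% in size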
# Summary of the method: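 In hERG-transduced U2OS cells, dye-loaded for 1 hr at room temperature in dark, test compounds incubated 10 min at 37 °C before thallium stimulation. AC50 values derived by Hill modelling of concentration-response.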
# [10] = biological target: Retinoic acid receptor RXR-alpha (Homo sapiens) (UniProt P19793); assay: qHTS assay for small molecule antagonists of retinoid X receptor alpha signaling (AID 588546; active = well fitted inhibition curve with a large enough effect in the signal ratio, with a control signal flat, not every such curve was filed as active; inconclusive = small, poorly fitted or top-dose-only effect, or effect the other way, or a change in a side signal; inactive = no such curve, though single readings can be large or run the other way; the % refers to the signal ratio; also: potency is read from the fitted curve at half-maximal effect;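 as to max response: cells stimulated with 9-cis-retinoic acid as agonist; % is scaled to controls: 0 for no effect and ±100 for the full control effect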); details: HEK293T RXRa-UAS-bla, beta-lactamase ratio, antagonist mode
# UniProt P19793, sequence (P19793 whole entry, looked up): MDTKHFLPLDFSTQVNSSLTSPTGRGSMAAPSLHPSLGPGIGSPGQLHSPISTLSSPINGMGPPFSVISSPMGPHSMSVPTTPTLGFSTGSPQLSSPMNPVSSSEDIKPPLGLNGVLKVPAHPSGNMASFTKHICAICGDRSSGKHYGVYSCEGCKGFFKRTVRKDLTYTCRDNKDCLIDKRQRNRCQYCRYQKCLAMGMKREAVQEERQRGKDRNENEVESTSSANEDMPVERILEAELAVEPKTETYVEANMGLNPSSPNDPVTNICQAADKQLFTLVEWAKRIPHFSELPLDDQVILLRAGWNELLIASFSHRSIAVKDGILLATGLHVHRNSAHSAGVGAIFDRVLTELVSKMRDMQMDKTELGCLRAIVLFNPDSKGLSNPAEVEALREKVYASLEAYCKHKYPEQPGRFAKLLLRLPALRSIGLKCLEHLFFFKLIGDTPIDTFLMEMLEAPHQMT
# Summary of the method: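 Beta-lactamase reporter inhibition, read as CCF4 fluorescence ratio (ex 405, em 460/530 nm) after 2 h at RT. HEK293T UAS-bla cells, 2500/well, were stimulated with 9-cis-RA at 500 or 100 nM final alongside test compound for 18 h at 37 C.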
# ECU = assay: qHTS profiling for inhibitors of Plasmodium falciparum proliferation (AID 504749); also: nearly all actives have a fitted effect of over 60% in size; also: potency is read from the fitted curve at half-maximal effect;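 as to activity, negative = inhibition: 0% = DMSO vehicle and full inhibition = artemisinin control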; details: P. falciparum in erythrocytes, SYBR Green DNA, 72 h; series mostly up to 28.7 µM
# Summary of the method: (§1)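 Quantitative HTS: compounds pinned into medium, infected erythrocytes added (0.3% parasitemia, 2.5% hematocrit), 72 h culture at 37 C under 5% CO2. Saponin/Triton lysis with SYBR Green I, overnight RT, then fluorescence read.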
# [11] = Cytometry Cell-Based qHTS for Inhibitors of the mTORC1 Signaling Pathway in MEF cells (AID 2668); also: potency is read from the fitted curve at half-maximal effect;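 as to activity change, negative = inhibition: Tsc2-/- p53-/- mouse embryonic fibroblasts stably re-expressing wild-type Tsc2; percent cells positive for phospho-rpS6 Ser235/236 relative to propidium iodide stain; plate controls were DMSO wells for no effect and 7.5 nM rapamycin control wells for full effect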
# Summary of the method: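 WT MEFs (Tsc2-/-, p53-/- stably re-expressing WT Tsc2) in DMEM + 10% FBS received compounds 24 hrs after plating, for 24 hrs at 37 degree Celsius. Fixed cells stained with Alexa-488 anti-phospho-rpS6 Ser235/236 and propidium iodide; laser-scanning cytometry read-out.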
# [12] = biological target: ATPase family AAA domain-containing protein 5 (Homo sapiens) (UniProt Q96QE3); assay: Validation screen for small molecules that inhibit ELG1-dependent DNA repair in human embryonic kidney (HEK293T) cells expressing luciferase-tagged ELG1 (AID 493107); also: nearly all actives have a fitted effect of over 70% in size; also: potency is read from the fitted curve at half-maximal effect
# UniProt Q96QE3, sequence (Q96QE3 whole entry, looked up, the tested form may be a part): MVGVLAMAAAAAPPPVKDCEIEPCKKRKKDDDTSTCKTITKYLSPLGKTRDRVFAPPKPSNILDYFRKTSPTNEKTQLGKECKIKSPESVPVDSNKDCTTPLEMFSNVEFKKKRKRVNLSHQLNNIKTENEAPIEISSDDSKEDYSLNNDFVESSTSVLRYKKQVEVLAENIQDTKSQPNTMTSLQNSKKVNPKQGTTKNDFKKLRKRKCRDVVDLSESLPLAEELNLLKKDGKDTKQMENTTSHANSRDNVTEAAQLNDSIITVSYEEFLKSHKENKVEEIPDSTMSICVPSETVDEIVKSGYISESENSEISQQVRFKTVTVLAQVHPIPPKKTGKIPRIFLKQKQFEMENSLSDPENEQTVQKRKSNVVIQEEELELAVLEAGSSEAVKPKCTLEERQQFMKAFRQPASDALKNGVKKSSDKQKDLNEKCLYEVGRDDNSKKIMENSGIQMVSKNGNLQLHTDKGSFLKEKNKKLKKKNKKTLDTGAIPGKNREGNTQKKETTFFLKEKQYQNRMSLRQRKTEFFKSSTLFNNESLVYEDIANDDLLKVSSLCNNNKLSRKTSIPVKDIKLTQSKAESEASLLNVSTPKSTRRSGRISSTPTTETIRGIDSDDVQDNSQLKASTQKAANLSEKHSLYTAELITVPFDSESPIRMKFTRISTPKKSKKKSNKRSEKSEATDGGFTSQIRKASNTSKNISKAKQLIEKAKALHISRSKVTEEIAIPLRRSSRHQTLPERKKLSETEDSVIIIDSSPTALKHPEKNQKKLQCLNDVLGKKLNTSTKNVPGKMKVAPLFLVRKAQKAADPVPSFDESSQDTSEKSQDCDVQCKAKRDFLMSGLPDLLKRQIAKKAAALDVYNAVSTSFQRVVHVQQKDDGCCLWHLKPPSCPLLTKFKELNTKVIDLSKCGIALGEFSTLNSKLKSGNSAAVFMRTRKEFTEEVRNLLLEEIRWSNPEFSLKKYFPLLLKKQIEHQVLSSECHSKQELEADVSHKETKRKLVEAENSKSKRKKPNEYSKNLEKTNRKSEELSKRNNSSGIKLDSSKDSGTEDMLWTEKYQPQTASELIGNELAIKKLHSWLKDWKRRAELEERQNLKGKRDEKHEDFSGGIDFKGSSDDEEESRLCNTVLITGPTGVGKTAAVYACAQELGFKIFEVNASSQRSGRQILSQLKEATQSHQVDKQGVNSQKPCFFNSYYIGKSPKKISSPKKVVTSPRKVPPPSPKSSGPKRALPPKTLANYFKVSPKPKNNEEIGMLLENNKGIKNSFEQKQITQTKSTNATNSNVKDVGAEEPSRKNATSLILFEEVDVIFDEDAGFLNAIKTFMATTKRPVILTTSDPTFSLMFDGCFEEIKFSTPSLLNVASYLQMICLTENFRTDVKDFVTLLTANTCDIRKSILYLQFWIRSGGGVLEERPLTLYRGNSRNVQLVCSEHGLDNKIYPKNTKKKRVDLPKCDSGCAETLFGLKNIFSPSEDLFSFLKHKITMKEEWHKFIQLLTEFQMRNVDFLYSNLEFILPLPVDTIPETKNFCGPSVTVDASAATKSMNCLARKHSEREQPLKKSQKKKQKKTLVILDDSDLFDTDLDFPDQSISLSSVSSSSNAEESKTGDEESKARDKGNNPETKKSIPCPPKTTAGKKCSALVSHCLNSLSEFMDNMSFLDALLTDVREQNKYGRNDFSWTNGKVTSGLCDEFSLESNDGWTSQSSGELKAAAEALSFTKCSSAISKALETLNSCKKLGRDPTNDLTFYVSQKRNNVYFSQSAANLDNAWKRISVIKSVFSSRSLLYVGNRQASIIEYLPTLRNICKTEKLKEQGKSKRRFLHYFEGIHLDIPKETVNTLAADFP
# Summary of the method: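 Luciferase read-out, ONE-Glo, 30 min at room temperature, follows 16 h co-exposure at 37 C of compound and the DNA-damaging agent 5-fluorouridine. Cells: HEK293T with ELG1-luciferase fusion, 2,000 per well, DMSO as vehicle.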
# [13] = biological target: Lysine-specific demethylase 5B (Homo sapiens) (UniProt Q9UGL1); assay: Optimization screen for KDM5B Histone Demethylases FDH coupled qHTS against the LOPAC library (AID 1347166); also: 0% is about no effect
# Summary of the method: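 KDM5BDeltaAP (200nM final) in 50mM HEPES pH 7.5, 0.01% Tween-20 was preincubated with compound for 10 min at room temperature. A substrate mix of 12.5uM H3K4Me3, 25uM a-ketoglutarate, ascorbate, Fe2+, NAD+ and formaldehyde dehydrogenase was then added. NADH fluorescence (340/450 nm) was read initially and after 30 min.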
# CP192 = assay: qHTS profiling for inhibitors of Plasmodium falciparum proliferation (AID 504749); also: nearly all actives have a fitted effect of over 60% in size; also: potency is read from the fitted curve at half-maximal effect;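 as to activity, negative = inhibition: 0% = DMSO vehicle and full inhibition = artemisinin control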; details: P. falciparum in erythrocytes, SYBR Green DNA, 72 h; series mostly up to 28.7 µM
# Summary of the method: as §1
# [14] = biological target: Ubiquitin carboxyl-terminal hydrolase 1 (Homo sapiens) (UniProt O94782); assay: Inhibitors of USP1/UAF1: Pilot qHTS (AID 504865);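 also: rhodamine fluorescence freed from ubiquitin-rhodamine substrate followed over time; potency is read from the fitted curve at half-maximal effect; nearly all actives have a fitted effect of over 35% in size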
# UniProt O94782, sequence (O94782 whole entry, looked up): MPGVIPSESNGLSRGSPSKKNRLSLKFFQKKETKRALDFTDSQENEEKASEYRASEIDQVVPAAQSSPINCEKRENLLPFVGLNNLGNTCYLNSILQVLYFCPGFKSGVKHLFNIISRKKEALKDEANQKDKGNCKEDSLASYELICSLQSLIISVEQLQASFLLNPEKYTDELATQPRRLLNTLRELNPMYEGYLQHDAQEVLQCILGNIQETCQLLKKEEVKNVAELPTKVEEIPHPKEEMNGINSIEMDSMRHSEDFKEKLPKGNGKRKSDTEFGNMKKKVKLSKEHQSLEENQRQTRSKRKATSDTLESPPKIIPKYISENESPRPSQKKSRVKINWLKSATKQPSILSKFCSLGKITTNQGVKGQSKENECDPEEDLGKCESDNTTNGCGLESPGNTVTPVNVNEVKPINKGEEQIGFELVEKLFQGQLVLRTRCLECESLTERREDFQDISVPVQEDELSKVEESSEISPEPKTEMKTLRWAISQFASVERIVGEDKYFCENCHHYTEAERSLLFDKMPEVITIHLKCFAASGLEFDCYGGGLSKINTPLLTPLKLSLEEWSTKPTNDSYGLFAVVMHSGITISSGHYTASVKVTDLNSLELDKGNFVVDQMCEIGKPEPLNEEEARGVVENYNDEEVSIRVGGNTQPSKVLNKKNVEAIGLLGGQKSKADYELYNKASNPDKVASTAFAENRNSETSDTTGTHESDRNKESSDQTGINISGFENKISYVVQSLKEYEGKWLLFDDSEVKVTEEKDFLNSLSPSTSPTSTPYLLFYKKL
# Summary of the method: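 USP1/UAF1 complex (1nM) preincubated with compound 15 min at room temperature, then Ub-Rho substrate (150nM final) added. Fluorescence read kinetically at 480/540 nm, 6 reads every 60 seconds. Buffer: 50mM HEPES pH 7.8, 0.5mM EDTA, 0.1 mg/ml BSA, 1mM TCEP, 0.01% Tween-20.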
# [15] = Primary qHTS for inhibitors of La Crosse Virus (LACV) - induced cell death in SH-SY5Y cells (AID 1508616); also: potency is read from the fitted curve at half-maximal effect
# Summary of the method: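 Rescue of virus-induced death was read as ATPLite luminescence after 6 days at 37C, scaled between DMSO wells with LACV and without virus. Cells were SH-SY5Y, 6000/well, infected at 0.01 MOI after compound addition.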
# [16] = Confirmatory qHTS for small molecule stabilizers of the endoplasmic reticulum resident proteome: Secreted ER Calcium Modulated Protein (SERCaMP) assay (AID 1508628); also: potency is read from the fitted curve at half-maximal effect; nearly all actives have a fitted effect of over 40% in size
# Summary of the method: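 Reporter secretion upon ER calcium depletion (100 nM thapsigargin, 4 h, 37C) is measured as medium luminescence with coelenterazine, after 16 h compound pretreatment of SH-SY5Y-GLuc-SERCaMP cells; primary at three concentrations up to 38.3 uM, follow-up at 11 (up to 76.6 uM).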
# FAB9 = assay: qHTS profiling for inhibitors of Plasmodium falciparum proliferation (AID 504749); also: nearly all actives have a fitted effect of over 60% in size; also: potency is read from the fitted curve at half-maximal effect;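 as to activity, negative = inhibition: 0% = DMSO vehicle and full inhibition = artemisinin control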; details: P. falciparum in erythrocytes, SYBR Green DNA, 72 h; series mostly up to 28.7 µM
# Summary of the method: as §1
# Tags tell the direction and shape of the fitted curve or compound fluorescence and quenching.
compound,measurement,setting,value
COc1ccc(Cl)cc1[C@@]1(F)C(=O)Nc2cc(C(F)(F)F)ccc21,Potency,[1],"inconclusive: 20.2 µM [inhibitor, partial curve, poor fit]"
O=C(Oc1ccccc1)c1cccc(C(=O)Oc2ccccc2)c1,Potency,[2],"inconclusive: 39.8 µM [activator, partial curve]"
same,Potency,[3],"inconclusive: 34.4 µM [activator, partial curve]"
CN(C)S(=O)(=O)c1ccc(NC(=S)N2CCC(C(O)(c3ccccc3)c3ccccc3)CC2)cc1,Potency,[1],"inconclusive: 11.4 µM [inhibitor, partial curve]"
COc1ccccc1N1CCN(CCN2C(=O)CC3(CCCC3)CC2=O)CC1,"activity change, negative = inhibition",[4],inconclusive: -19.2%
same,Potency,[5],"inactive and inconclusive: 19 µM [inhibitor, single point]"
same,Potency,[6],active: 56.2 µM
CCC(C)C(N)C1=NC(C(=O)N[C@@H](CC(C)C)C(=O)N[C@H](CCC(=O)O)C(=O)N[C@H](C(=O)N[C@H]2CCCCNC(=O)[C@H](CC(N)=O)NC(=O)[C@@H](CC(=O)O)NC(=O)[C@H](Cc3cnc[nH]3)NC(=O)[C@@H](Cc3ccccc3)NC(=O)[C@H]([C@@H](C)CC)NC(=O)[C@@H](CCCN)NC2=O)[C@@H](C)CC)CS1 (some centres not stated) (X1-L[dE]IK[dOrn]I[dF]H[dD]N; lactam 4-C),Potency,[1],"inconclusive: 17.6 µM [inhibitor, partial curve, poor fit]"
COc1nc2sc(C(=O)NC3CC3)c(N)c2c(C)c1Cl,Potency,[1],"inconclusive: 16.1 µM [inhibitor, partial curve]"
CC(C)(C)NCC(O)c1cc(O)cc(O)c1 (configuration not stated),Potency,[7],"inconclusive: 0.01 µM [inhibitor, partial curve]"
O=C(CCCCCCC(=O)Nc1ccccc1)NO,Potency,[8],active: 2.24 µM
C=C1C(=C/C=C2\CCC[C@]3(C)[C@@H]([C@H](C)/C=C/[C@@H](O)C4CC4)CC[C@@H]23)C[C@@H](O)C[C@@H]1O,Potency,[9],"inconclusive: 35.5 µM [inhibitor, single point]"
NCCNc1cccc2ccccc12,Potency,[2],"inconclusive: 50.1 µM [cytotoxic, side channel, single point]"
same,Potency,[10],active: 44.7 µM
same,max response,[10],inactive: -21.1%
same,Potency,[8],inactive
same,Potency,[3],"inactive and inconclusive: 17.2 µM [activator, partial curve]"
same,Potency,ECU,inactive
CO/N=C(/C(=O)N[C@@H]1C(=O)N2C(C(=O)OCOC(=O)C(C)(C)C)=C(C)CS[C@H]12)c1csc(N)n1,Potency,[1],"inconclusive: 18 µM [inhibitor, single point]"
CC(=O)O[C@]1(C(C)=O)CC[C@H]2[C@@H]3C=C(Cl)C4=CC(=O)[C@@H]5C[C@@H]5[C@]4(C)[C@H]3CC[C@@]21C,Potency,[11],inactive
same,Potency,[12],inactive
same,activation,[2],inconclusive: -15.6% and inconclusive: -26%
same,Potency,[10],"inconclusive: 31.6 µM [fluorescent, side channel, partial curve, poor fit]"
same,max response,[10],inconclusive: -53%
same,"ratio activity, negative = inhibition",[8],inconclusive: 1.83%
same,Potency,[13],inactive
same,Potency,CP192,"inconclusive: 1.69 µM [inhibitor, single point]"
CC(C)Cn1cnc2c(N)nc3ccccc3c21,"ratio activity, negative = inhibition",[8],inconclusive: 0.887%
C[N+]1(CC2COC(c3ccccc3)(C3CCCCC3)O2)CCCCC1 (configuration not stated),Potency,[9],"inconclusive: 35.5 µM [inhibitor, single point]"
same,Potency,[8],inactive
CCCC(C(=O)OCCN(CC)CC)(c1ccccc1)c1ccccc1,Potency,[5],"inconclusive: 3.98 µM [activator, partial curve]"
same,Potency,[11],"inconclusive: 14.7 µM [falling, single point]"
same,Potency,[12],"inconclusive: 13 µM [inhibitor, partial curve, poor fit]"
same,Potency,[14],"inconclusive: 35.5 µM [inhibitor, partial curve, poor fit] and inconclusive: 89.1 µM [inhibitor, partial curve, poor fit]"
same,Potency,[15],"inconclusive: 6.31 µM [inhibitor, single point]"
same,Potency,[16],"inconclusive: 39.8 µM [inhibitor, partial curve]"
same,Potency,FAB9,"inconclusive: 12.6 µM [inhibitor, single point]"
